Data as given in patent EP0359439A1, “Substituted pyridazinones” (ORION-YHTYMÄ OY, priority 1988, dated 1990).
The name of at least one read-out is uncertain.

Tested on: Male Wistar rats
Test: Hemodynamics (LV dP/dt, MAP, HR) in anesthetized rats after i.v. bolus doses
Format: in vivo
Details: for HR Maximal Percent change / LV dP/dt Maximal Percent change / MAP Maximal Percent change: mean ± SE

| Compound | MAP Duration of Action(>5%) (1st dose (0.01 μmol)) | HR Maximal Percent change (1st dose (0.01 μmol)) | LV dP/dt Maximal Percent change (1st dose (0.01 μmol)) | MAP Maximal Percent change (1st dose (0.01 μmol)) | LV dP/dt Duration of Action(>5%) (2nd dose (0.03 μmol)) | HR Maximal Percent change (2nd dose (0.03 μmol)) | LV dP/dt Maximal Percent change (2nd dose (0.03 μmol)) | MAP Maximal Percent change (2nd dose (0.03 μmol)) | LV dP/dt Duration of Action(>5%) (3rd dose (0.1 µmol)) | MAP Duration of Action(>5%) (3rd dose (0.1 µmol)) | HR Maximal Percent change (3rd dose (0.1 µmol)) | LV dP/dt Maximal Percent change (3rd dose (0.1 µmol)) | MAP Maximal Percent change (3rd dose (0.1 µmol)) | HR Duration of Action(>5%) (4th dose (0.3 μmol)) | LV dP/dt Duration of Action(>5%) (4th dose (0.3 μmol)) | MAP Duration of Action(>5%) (4th dose (0.3 μmol)) | HR Maximal Percent change (4th dose (0.3 μmol)) | LV dP/dt Maximal Percent change (4th dose (0.3 μmol)) | MAP Maximal Percent change (4th dose (0.3 μmol)) | other results |
| --- | --- | --- | --- | --- | --- | --- | --- | --- | --- | --- | --- | --- | --- | --- | --- | --- | --- | --- | --- | --- |
| CC1CC(=O)NN=C1c1ccc(N=C(c2ccccc2)c2ccc(O)cc2O)cc1 (centres unmarked) [Compound M, 6-[4-(2,4-dihydroxyphenyl)benzylideneaminophenyl]-5-methyl-4,5-dihydropyridazin-3(2H)one] | >30 min | -5 ± 1% | 14 ± 4% | -10 ± 2% | >30 min | 9 ± 1% | 28 ± 7% | -19 ± 2% | >30 min | >30 min | 10 ± 1% | 39 ± 10% | -28 ± 3% | >30 min | >30 min | >30 min | 11 ± 1% | 42 ± 12% | -37 ± 4% | HR Duration of Action(>5%) (1st dose (0.01 μmol)): 1 min; LV dP/dt Duration of Action(>5%) (1st dose (0.01 μmol)): >30 min; HR Duration of Action(>5%) (2nd dose (0.03 μmol)): >30 min; MAP Duration of Action(>5%) (2nd dose (0.03 μmol)): >30 min; HR Duration of Action(>5%) (3rd dose (0.1 µmol)): >30 min |
| COc1ccc(-c2nc3cc(C4=NNC(=O)CC4C)ccc3[nH]2)cc1 (centres unmarked) [Pimobendan, 4,5-Dihydro-6-(2-(4-methoxyphenyl)-1H-benzimidazol-5-yl)-5-methyl-3(2H)-pyridazinone, reference compound] |  | -2 ± 1% | 4 ± 2% | -1 ± 1% | 5 min | -3 ± 4% | 8 ± 4% | -3 ± 1% | 10 min |  | -4 ± 4% | 13 ± 2% | -1 ± 4% |  | >30 min | 1 min | 0 ± 1% | 21 ± 4% | -14 ± 7% |  |
| O=C1CCC(c2ccc(N=Cc3ccc(O)cc3O)cc2)=NN1 [Compound A, 6-[4-(2,4-Dihydroxyphenyl)methyleneaminophenyl]-4,5-dihydropyridazin-3(2H)one] |  | 1 ± 1% | 4 ± 1% | -1 ± 1% |  | 2 ± 1% | 6 ± 2% | -2 ± 1% | 14 min |  | 3 ± 1% | 12 ± 4% | -4 ± 1% |  | 10 min | >30 min | 4 ± 1% | 12 ± 1% | -15 ± 4% |  |
| O=C1CCC(c2ccc(N=C(Cc3ccc(O)cc3)c3ccc(O)cc3O)cc2)=NN1 [Compound O, 6-[4-(1-(2,4-dihydroxyphenyl)-2-(4-hydroxyphenyl)ethylidene)aminophenyl]-4,5-dihydropyridazin-3(2H)one] |  | -2 ± 1% | 1 ± 1% | -2 ± 1% |  | 2 ± 0.5% | 6 ± 1% | -2 ± 1% |  |  | 2 ± 0.5% | 5 ± 1% | -2 ± 1% |  | 4 min |  | 3 ± 0.3% | 11 ± 3% | -1 ± 1% |  |
| CC1(C)C(=O)Nc2cc3nc(-c4ccncc4)[nH]c3cc21 [BM 14.478, 5,7-Dihydro-7,7-dimethyl-2-(4-pyridinyl)-pyrrolo-(2,3-f)benzimidazol-6(1H)-one, reference compound] | >30 min | 3 ± 1% | 9 ± 1% | -5 ± 1% | >30 min | 5 ± 1% | 16 ± 3% | -14 ± 2% | >30 min | >30 min | 11 ± 1% | 31 ± 4% | -28 ± 3% | >30 min | >30 min | >30 min | 14 ± 2% | 35 ± 5% | -40 ± 3% | LV dP/dt Duration of Action(>5%) (1st dose (0.01 μmol)): 12 min; HR Duration of Action(>5%) (2nd dose (0.03 μmol)): 9 min; MAP Duration of Action(>5%) (2nd dose (0.03 μmol)): >30 min; HR Duration of Action(>5%) (3rd dose (0.1 µmol)): >30 min |
| CC(=Nc1ccc(-c2ccc(=O)[nH]n2)cc1)c1ccc(O)cc1O [Compound H, 6-[4-(1-(2,4-Dihydroxyphenyl)ethylidene)aminophenyl]pyridazin-3(2H)one] | 1 min | 1 ± 0.4% | 5 ± 1% | -7 ± 1% |  | 2 ± 0.2% | 5 ± 1% | -7 ± 1% | 6 min | 1 min | 3 ± 0.3% | 9 ± 2% | -7 ± 1% | 1 min | 6 min | 16 min | 6 ± 1% | 10 ± 3% | -16 ± 3% |  |
| O=C1CCC(c2ccc(N=C(CCCc3ccccc3)c3ccc(O)cc3O)cc2)=NN1 [Compound T, 6-[4-(1-(2,4-dihydroxyphenyl)-4-phenylbutylidene)aminophenyl]-4,5-dihydropyridazin-3(2H)one] |  | -1 ± 1% | 2 ± 1% | 3 ± 4% |  | -1 ± 1% | 8 ± 3% | -1 ± 2% | 2 to 11 min |  | 1 ± 1% | 10 ± 2% | -3 ± 3% |  |  |  | 2 ± 1% | 14 ± 2% | 1 ± 5% |  |
| COc1ccc(C(=Nc2ccc(C3=NNC(=O)CC3)cc2)c2ccc(O)cc2O)cc1OC [Compound P] |  | -2 ± 0.3% | 5 ± 1% | -6 ± 1% |  | 2 ± 0.3% | 9 ± 3% | -7 ± 3% | 4 min |  | 3 ± 0.4% | 12 ± 1% | -6 ± 2% |  | 24 min | 2 min | 5 ± 0.3% | 22 ± 5% | -14 ± 4% |  |
